Assay results from publication PMC9911399, “Two distinct binding modes provide the RNA-binding protein RbFox with extraordinary sequence specificity”.
Residue numbers refer to the chain shown, from its start. The list shows a part of the results.

B1: AACUGCA (DNA:RNA)
RNA: GGGAGACCGGAAUUCAGAUUGUCCAACUGCAUUAAAUCCCGUCGUAGCCACCA
DNA 1: CAATCTGAATTCCGGTCTCCC
DNA 2: TGGTGGCTACGACGGGATT
B2: GAACAUA (DNA:RNA)
RNA: B1 RNA with A25G, C27A, U28C, G29A, C30U
DNA 1: CAATCTGAATTCCGGTCTCCC
DNA 2: TGGTGGCTACGACGGGATT
B3: UGUAGUA (DNA:RNA)
RNA: B1 RNA with A25U, A26G, C27U, U28A, C30U
DNA 1: CAATCTGAATTCCGGTCTCCC
DNA 2: TGGTGGCTACGACGGGATT
B4: AGUCAAA (DNA:RNA)
RNA: B1 RNA with A26G, C27U, U28C, G29A, C30A
DNA 1: CAATCTGAATTCCGGTCTCCC
DNA 2: TGGTGGCTACGACGGGATT
B5: UUAUUCC (DNA:RNA)
RNA: B1 RNA with A25U, A26U, C27A, G29U, A31C
DNA 1: CAATCTGAATTCCGGTCTCCC
DNA 2: TGGTGGCTACGACGGGATT
B6: AGGGUUU (DNA:RNA)
RNA: B1 RNA with A26G, C27G, U28G, G29U, C30U, A31U
DNA 1: CAATCTGAATTCCGGTCTCCC
DNA 2: TGGTGGCTACGACGGGATT
B7: AGGUCGG (DNA:RNA)
RNA: B1 RNA with A26G, C27G, G29C, C30G, A31G
DNA 1: CAATCTGAATTCCGGTCTCCC
DNA 2: TGGTGGCTACGACGGGATT
B8: AGGUAAA (DNA:RNA)
RNA: B1 RNA with A26G, C27G, G29A, C30A
DNA 1: CAATCTGAATTCCGGTCTCCC
DNA 2: TGGTGGCTACGACGGGATT
B9: CUGUAGC (DNA:RNA)
RNA: B1 RNA with A25C, A26U, C27G, G29A, C30G, A31C
DNA 1: CAATCTGAATTCCGGTCTCCC
DNA 2: TGGTGGCTACGACGGGATT
B10: GACGUUU (DNA:RNA)
RNA: B1 RNA with A25G, U28G, G29U, C30U, A31U
DNA 1: CAATCTGAATTCCGGTCTCCC
DNA 2: TGGTGGCTACGACGGGATT
B11: UCGAAGA (DNA:RNA)
RNA: B1 RNA with A25U, A26C, C27G, U28A, G29A, C30G
DNA 1: CAATCTGAATTCCGGTCTCCC
DNA 2: TGGTGGCTACGACGGGATT
B12: CACGCGG (DNA:RNA)
RNA: B1 RNA with A25C, U28G, G29C, C30G, A31G
DNA 1: CAATCTGAATTCCGGTCTCCC
DNA 2: TGGTGGCTACGACGGGATT
B13: CAGUCCG (DNA:RNA)
RNA: B1 RNA with A25C, C27G, G29C, A31G
DNA 1: CAATCTGAATTCCGGTCTCCC
DNA 2: TGGTGGCTACGACGGGATT
B14: GGAGGGU (DNA:RNA)
RNA: B1 RNA with A25G, A26G, C27A, U28G, C30G, A31U
DNA 1: CAATCTGAATTCCGGTCTCCC
DNA 2: TGGTGGCTACGACGGGATT
B15: GCGCUCC (DNA:RNA)
RNA: B1 RNA with A25G, A26C, C27G, U28C, G29U, A31C
DNA 1: CAATCTGAATTCCGGTCTCCC
DNA 2: TGGTGGCTACGACGGGATT
B16: UUAAACC (DNA:RNA)
RNA: B1 RNA with A25U, A26U, C27A, U28A, G29A, A31C
DNA 1: CAATCTGAATTCCGGTCTCCC
DNA 2: TGGTGGCTACGACGGGATT
B17: CCUGAGA (DNA:RNA)
RNA: B1 RNA with A25C, A26C, C27U, U28G, G29A, C30G
DNA 1: CAATCTGAATTCCGGTCTCCC
DNA 2: TGGTGGCTACGACGGGATT
B18: GUGAGAU (DNA:RNA)
RNA: B1 RNA with A25G, A26U, C27G, U28A, C30A, A31U
DNA 1: CAATCTGAATTCCGGTCTCCC
DNA 2: TGGTGGCTACGACGGGATT
B19: CAUCUUA (DNA:RNA)
RNA: B1 RNA with A25C, C27U, U28C, G29U, C30U
DNA 1: CAATCTGAATTCCGGTCTCCC
DNA 2: TGGTGGCTACGACGGGATT
B20: UGAGUGA (DNA:RNA)
RNA: B1 RNA with A25U, A26G, C27A, U28G, G29U, C30G
DNA 1: CAATCTGAATTCCGGTCTCCC
DNA 2: TGGTGGCTACGACGGGATT

Target: T1, RBFOX1 RRM RbFoxmut (Fox-RRM*) (Homo sapiens, UniProt Q9NWB1 109-208, R118D;E147R;N151S;E152T)
T1 sequence: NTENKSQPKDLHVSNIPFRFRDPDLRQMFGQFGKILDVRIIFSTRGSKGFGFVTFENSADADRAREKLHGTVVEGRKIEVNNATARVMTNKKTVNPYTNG
Assay: EMSA; HiTS-Eq, 1 nM pool, 10 min; buffer printed only for the single-RNA assays: 10 mM Tris pH 7.5, 150 mM NaCl, 3.4 mM EDTA, 0.001% NP-40, 30 C
Conditions: tags: His6 N-terminal (pET28a); label: 5' 32P
Method in brief: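 Relative association constants, normalised to the cognate motif, were derived by comparing read counts of each RNA species with those of the control reaction. The RNA sequenced was the free fraction, separated by 8% native PAGE after a 10 min equilibration in 50 µL of 1 nM 5′-radiolabelled RNA (7 randomized nucleotides) with increasing concentrations of purified wild-type or mutant RbFox RRM.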

| Binder | binding signal |
| --- | --- |
| B1 | 0.139 KA relative to UGCAUGU |
| B2 | 0.115 KA relative to UGCAUGU |
| B3 | 0.193 KA relative to UGCAUGU |
| B4 | 0.0757 KA relative to UGCAUGU |
| B5 | 0.0689 KA relative to UGCAUGU |
| B6 | 0.0777 KA relative to UGCAUGU |
| B7 | 0.117 KA relative to UGCAUGU |
| B8 | 0.118 KA relative to UGCAUGU |
| B9 | 0.136 KA relative to UGCAUGU |
| B10 | 0.0927 KA relative to UGCAUGU |
| B11 | 0.106 KA relative to UGCAUGU |
| B12 | 0.089 KA relative to UGCAUGU |
| B13 | 0.088 KA relative to UGCAUGU |
| B14 | 0.0845 KA relative to UGCAUGU |
| B15 | 0.046 KA relative to UGCAUGU |
| B16 | 0.0615 KA relative to UGCAUGU |
| B17 | 0.1 KA relative to UGCAUGU |
| B18 | 0.101 KA relative to UGCAUGU |
| B19 | 0.137 KA relative to UGCAUGU |
| B20 | 0.111 KA relative to UGCAUGU |
